Measurements taken from the RNAGym collection of RNA variant scans (doi:10.1073/pnas.2313332121).
Variants at the background level are over-represented here.

B1: TPR 5TU (parent)
chain: GGAUCUUCUCGAUCUAACAAAAAAGACAAAUCUGCCACAAAGCUUGAGAGCAUCUUCGGAUGCAGAGGCGGCAGCCUUCGGUGGCGCGAUAGCGCCAACGUUCUCAACUAUGACACGCAAAACGCGUGCUCCGUUGAAUGGAGUUUAUCAUG

Variants of: B1
Assay: polymerase ribozyme fitness, log enrichment relative to wild type (log ratio); higher = more active; in vitro selection for triplet polymerase activity
In short: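 Only genotypes with ≥10 input reads and ≥1 read per output were kept after Illumina sequencing of input and output libraries. These libraries were PCR-built, transcribed mutants of each subunit of a heterodimeric triplet polymerase ribozyme, each put through one triplicate in vitro selection round with frozen incubation at −7 °C, gel excision of extended constructs, streptavidin-bead capture and RT-PCR. Fitness is a logarithmic ratio of genotype enrichment to wild-type enrichment, from inverse-variance-weighted replicate averages, with the logarithm in base 2.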

Variant | polymerase ribozyme fitness (log ratio)
C54U C69U G80A U82G G83U | ≤ -4.2
C54U C72G G84U A120C G143U | ≤ -4.2
C54U C72U | -0.468
C54U C72U C93G C103A C114G | ≤ -4.2
C54U C75G U78C C79A G80U | ≤ -4.2
C54U C76A C79U G84A U102G U148A U151C | ≤ -4.2
C54U C76G C87A C93G C108U U134G | ≤ -4.2
C54U C76G G84U U101C | ≤ -4.2
C54U C76U C87A A107G | ≤ -4.2
C54U C79U G92U C95U G141C | -3.77
C54U C85G C87U A106U C114U A147C | ≤ -4.2
C54U C87G | ≤ -4.2
C54U C93U | -1.99
C54U C95A G126U U148A | ≤ -4.2
C54U C96A C105U | 0.0167
C54U C96U A115C U127C U144C | ≤ -4.2
C54U C99G U101G A142U | -3.57
C54U C114A A137U | -3.59
C54U C149U | -0.259
C54U G58C C87G A89U C116U U148G | ≤ -4.2
C54U G58C G59C G67C A119G G126A | ≤ -4.2

Variant | polymerase ribozyme fitness (log ratio)
C54U G59C A97U | -0.658
C54U G62C C69U U82G C96U U102G U139G | ≤ -4.2
C54U G62C C72G U134C | ≤ -4.2
C54U G65A C85U A89G U146G | -4.13
C54U G65C C93A C96G | ≤ -4.2
C54U G67U G86U C95A | ≤ -4.2
C54U G71C A107C C108U | ≤ -4.2
C54U G81U G83U G152U | -4.17
C54U G83A G84C A91C | ≤ -4.2
C54U G86C A106G U144G U148A | ≤ -4.2
C54U G86U A138G A142C U148G | ≤ -4.2
C54U G86U U102C G143U | ≤ -4.2
C54U G94U U111G G128C | ≤ -4.2
C54U G143A | -0.736
C54U U55A C85G A91G G152U | ≤ -4.2
C54U U55A G83C G112A U148G | ≤ -4.2
C54U U55A G88U G94A U101G U135A A137U | ≤ -4.2
C54U U55A U77G A91U A137C | ≤ -4.2
C54U U55G C95A A119C U127G A142C | ≤ -4.2
C54U U55G G92U C132G | ≤ -4.2
C54U U55G U61G G92A | ≤ -4.2

Variant | polymerase ribozyme fitness (log ratio)
C54U U55G U82G | -1.38
C54U U56A C93A G100U | ≤ -4.2
C54U U56A G128U G133U U145G | ≤ -4.2
C54U U56C | -0.57
C54U U61G C87A A115U A122C | ≤ -4.2
C54U U77C G84A U109C | ≤ -4.2
C54U U130G | -3.73
C54U U146A | -0.881
C54U U146G | -0.826
U55A A60G | 0.676
U55A A60U G84U C116G A119U | -2.63
U55A A64U C85U | ≤ -4.2
U55A A66G C75A U78G G81A A122U | ≤ -4.2
U55A A66U G74A C75A C79G G88C C95G A137U | ≤ -4.2
U55A A73C C87G A98G U109A U111G C131U C132G | ≤ -4.2
U55A A73C C99U A106C | ≤ -4.2
U55A A73G | -0.446
U55A A73G A89G G136A | -0.934
U55A A73G C75G C96G C103A C105A U146A | ≤ -4.2
U55A A89C C96G U102C C108U C114U | ≤ -4.2
U55A A91C A97U A106U | ≤ -4.2

Variant | polymerase ribozyme fitness (log ratio)
U55A A91G U134A | -4.01
U55A A97U | -0.916
U55A A107C C125A | ≤ -4.2
U55A A110U | ≤ -4.2
U55A A138U | -3.9
U55A A147C | -1.3
U55A C57A G81A G92A U104C U134G G141C | ≤ -4.2
U55A C57U G84A G141C | -0.559
U55A C63G A121U | -0.282
U55A C63U C85U C103A A138U U139A | ≤ -4.2
U55A C69A U77C A89G | ≤ -4.2
U55A C69U G94C | -3.36
U55A C72A C99U G126A U139C | ≤ -4.2
U55A C75G U77G A107U | ≤ -4.2
U55A C76G A138C | ≤ -4.2
U55A C76G C96U | ≤ -4.2
U55A C76U C93U C95U G143A | -2.72
U55A C79G G81A | -4.18
U55A C85A A119U U134A A142C | ≤ -4.2
U55A C85A G88C C108A G112C A142U | ≤ -4.2
